# In all, about 370,000 compounds went through this assay and about 150 (0.041%) were called active. The inconclusive results got no clear call from the source; some entries with a clear call stand among them for comparison. The call rests on the fitted dose curve; in most records, active means well fitted inhibition curve with a large enough effect; inconclusive means small, poorly fitted or top-dose-only effect; inactive means flat fitted curve, though single readings scatter. No potency is given beside an inconclusive call; the fits are too rough. Peptide text beside a SMILES is read from it. * marks the point of attachment. Boc = CC(C)(C)OC(=O)*; OtBu = CC(C)(C)O*
# Target: Beta-lactamase (Escherichia coli (strain K12)) (UniProt P00811)
# UniProt P00811, sequence (P00811 whole entry, looked up): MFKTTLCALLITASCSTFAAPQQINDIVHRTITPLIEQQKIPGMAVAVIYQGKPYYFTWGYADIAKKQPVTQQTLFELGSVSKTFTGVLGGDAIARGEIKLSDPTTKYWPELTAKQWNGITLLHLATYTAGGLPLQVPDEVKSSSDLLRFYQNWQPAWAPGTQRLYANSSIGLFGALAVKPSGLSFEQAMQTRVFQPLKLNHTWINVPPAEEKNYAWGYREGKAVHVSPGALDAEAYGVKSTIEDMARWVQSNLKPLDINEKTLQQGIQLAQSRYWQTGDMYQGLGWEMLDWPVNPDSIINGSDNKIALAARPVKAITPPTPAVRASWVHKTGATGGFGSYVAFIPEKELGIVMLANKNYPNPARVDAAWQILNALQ
# Assay: qHTS Inhibitors of AmpC Beta-Lactamase (assay with detergent); further: nearly all actives have a fitted effect of over 25% in size;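 on activity change, negative = inhibition: 0% = no-compound wells and -100% = no-enzyme wells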
# Conditions: AmpC hydrolysis of nitrocefin, absorbance 480 nm, 0.01% Triton; activity change, negative = inhibition: at 114 µM (top of the series)
# Summary of the method: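 20 mM phosphate pH 7.0 + 0.01% (detergent screen) or 0.0001% Triton X-100; 5.3 nM AmpC reagent; cpd preinc 15 min RT; nitrocefin (800 uM stock) to start; A480 q20 s × 4 min; Activity was normalised to no-enzyme and no-compound control wells.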
# Potency means the concentration at half of the fitted maximal effect; tags describe the fitted curve by direction and shape.
Structure (SMILES),"activity change, negative = inhibition",Potency
CCOC(=O)N1CCN(C(=O)c2ccc(OC)cc2)CC1,inactive: 1.41%,–
Brc1cccc2sc(N3CCN(c4ccccc4)CC3)nc12,–,"inconclusive [inhibitor, full curve, poor fit]"
Cc1ccc(C(=O)NNC(=O)CSc2nnc3c(n2)[nH]c2ccc(C)cc23)cc1,–,"inconclusive [inhibitor, full curve, poor fit]"
CC(C)=C1C2CCC1C1C(=O)N(c3nc(-c4ccccc4)c(C)s3)C(=O)C21 (stereo unspecified),–,"inconclusive [inhibitor, single point]"
Fc1ccc(-c2cnc[nH]2)cc1,inactive: 2.31%,–
Cc1cc(C)c2c(N)c(C(=O)c3ccc(Cl)cc3Cl)sc2n1,inactive: -13.2%,–
Cc1ccc(-n2ncc(C(=O)NCC3CCN(C4CCCC4)C3)c2C2CCN(C(=O)OC(C)(C)C)CC2)cc1C (stereo unspecified),inactive: 3.1%,–
C#CCONC(=O)c1cc(OCC(F)(F)F)ccc1OCC(F)(F)F,–,"inconclusive [inhibitor, partial curve]"
CC(C)(C)NC(=O)C1CCN(C(=O)c2ccc(Br)cc2)CC1,–,"inconclusive [inhibitor, full curve, poor fit]"
CC(NC(=O)C(CC(=O)OC(C)(C)C)NC(=O)OC(C)(C)C)C(N)=O (stereo unspecified) (Boc-Asp(OtBu)-Ala-NH2; configuration not given here),–,"inconclusive [inhibitor, full curve]"
CN(Cc1ccccc1F)C(=O)c1ccc2c(=O)n3c(nc2c1)CCC3,–,"inconclusive [inhibitor, single point]"
Fc1ccc(CCNCc2ccc(Cl)c(Cl)c2)cc1,–,"inconclusive [inhibitor, partial curve]"
CCn1nc(C(=O)OCC(=O)c2ccc(F)cc2)c2ccccc2c1=O,inactive: -4.83%,–
CCn1c(SC/C=C/c2ccccc2)nnc1-c1cnccn1,–,"inconclusive [inhibitor, full curve, poor fit]"
COc1ccc(CC(=O)O/N=C(\N)c2ccccc2)cc1OC,inactive: -4.26%,–
COc1ccc(CC(=O)NC2CCCc3ccccc32)cc1 (stereo unspecified),–,"inconclusive [inhibitor, full curve, poor fit]"
O=C(C[n+]1ccccc1)Nc1cc(C(F)(F)F)ccc1Cl,–,"inconclusive [inhibitor, full curve]"
CCOC(=O)c1sc(NC(=O)C2CC2)nc1C,–,"inconclusive [inhibitor, full curve]"
O=C(O)CCc1ccc(-c2ccc(Cl)cc2)n1Cc1ccco1,–,"inconclusive [inhibitor, single point]"
CCN(CC)CCNC(=O)c1cc2c(-c3ccc(Cl)cc3)nn(C)c2s1,–,"inconclusive [inhibitor, partial curve, poor fit]"
Cc1cc2c(nc1C)CCCN2C[C@@H](C)O/N=C1/[C@H]2CCn3c(=O)n(-c4ccccc4)c(=O)n3[C@H]2[C@H](O)[C@@H]2O[C@H]12,inactive: -1.5%,–
Cc1ccc(NC(=O)CS(=O)(=O)c2c[nH]c3ccccc23)c(C)c1,–,"inconclusive [inhibitor, single point]"

Structure (SMILES),"activity change, negative = inhibition",Potency
O=S(=O)(Nc1ccc2c(c1)nc1n2CCN(Cc2ccccc2)C1)c1ccc(Cl)cc1,–,"inconclusive [inhibitor, partial curve]"
C=CCn1c(SCc2cc(C(C)=O)ccc2OCC)nc2ccccc2c1=O,–,"inconclusive [inhibitor, full curve, poor fit]"
COc1ccc(NC(=O)c2cc3nc(-c4ccccc4)cc(-c4ccccc4)n3n2)c(OC)c1,–,"inconclusive [inhibitor, full curve]"
O=S(=O)(NCc1ccccn1)c1ccc(Br)s1,–,"inconclusive [inhibitor, full curve, poor fit]"
COc1ccc(-n2cc3c(-c4cccc(Br)c4)nnc(C)c3n2)cc1,–,"inconclusive [inhibitor, full curve, poor fit]"
CCCCn1c(-c2csc(C(C)C)c2)n[nH]c1=S,–,"inconclusive [inhibitor, partial curve]"
O=C(CCCN1C(=O)c2ccccc2C1=O)N1CCc2ccccc2C1,–,"inconclusive [inhibitor, single point]"
CC(C)OC(=O)c1c2c(n3ccccc13)C(=O)c1ccccc1C2=O,–,"inconclusive [inhibitor, single point]"
CC(=O)c1ccc(OCCCC(=O)Nc2cccc(S(=O)(=O)N3CCCCC3)c2)cc1,inactive: -6.98%,–
COc1ccc(C2N=C(N)N=C(N)N2c2ccc(C)cc2)cc1 (stereo unspecified),inactive: -0.0553%,–
Cc1cccc(C)c1NC(=O)CSc1nnc(-c2ccccc2)n1Cc1ccc2c(c1)OCO2,–,"inconclusive [inhibitor, partial curve, poor fit]"
CCC1Oc2ccccc2N(CC(=O)N2CCOCC2)C1=O (stereo unspecified),inactive: -6.18%,–
O=C(COC(=O)CCC(=O)c1ccc(F)cc1)Nc1nnc(-c2ccccc2)o1,–,"inconclusive [inhibitor, full curve, poor fit]"
Cc1ccc(SCC(=O)Nc2ccc(O)c(-c3nc4cc(C)ccc4o3)c2)cc1,inactive: 22.8%,–
COc1ccc(-c2nn(-c3ccccc3)cc2C(=O)Nc2ccc(C(=O)O)cc2)cc1,inactive: 0.362%,–
Cc1ccc(NC(=O)CSc2nnc(Cc3ccccc3)o2)c(C)c1,–,"inconclusive [inhibitor, full curve, poor fit]"
O=C(NC1CCCC1)c1ccc(Br)o1,inactive: 0.465%,–
N[C@@H](Cc1cc(Br)c(O)c(Br)c1)C(=O)O,–,"inconclusive [inhibitor, full curve, poor fit]"
CC(C)c1ccc(NC(=S)NC2CCN(Cc3ccccc3)CC2)cc1,–,"inconclusive [inhibitor, single point]"
Cc1cccc(CSc2nnc(NC(=O)c3ccco3)s2)c1,–,"inconclusive [inhibitor, partial curve, poor fit]"
Cc1cc(C(F)(F)F)nc(NCc2ccc(F)cc2)n1,–,"inconclusive [inhibitor, single point]"
O=[N+]([O-])c1ccc2nc(NS(=O)(=O)c3ccc(F)cc3)sc2c1,–,"inconclusive [inhibitor, single point]"

Structure (SMILES),"activity change, negative = inhibition",Potency
CC(C)Cn1c(=O)c2c(nc3n2CCCN3Cc2ccccc2)n(C)c1=O,–,"inconclusive [inhibitor, single point]"
CCOC(=O)C1CCN(C(=O)c2cccc(N3C(=O)NC4CC3(C)Oc3ccc(C)cc34)c2)CC1 (stereo unspecified),–,"inconclusive [inhibitor, full curve, poor fit]"
S=C(NCc1ccccc1)NCc1ccc(Cl)cc1,–,"inconclusive [inhibitor, single point]"
O=c1[nH]c(=O)n(C2CCCO2)cc1F (stereo unspecified),–,"inconclusive [inhibitor, partial curve, poor fit]"
CCC(=O)N1CCc2cc(Br)cc(S(=O)(=O)NC3CCN(Cc4ccccc4)CC3)c21,inactive: -8.75%,–
O=S(N1CCCCCC1)C12CC3CC(CC(C3)C1)C2 (stereo unspecified),–,"inconclusive [inhibitor, partial curve]"
N/C(=N\OC(=O)CCCOc1ccccc1)c1cccc([N+](=O)[O-])c1,–,"inconclusive [inhibitor, partial curve]"
CC(=O)N1CCN(C(=O)CNC(=O)c2cccs2)CC1,inactive: 3.64%,–
COc1cc(C(=O)NCc2ccc(C(=O)NCC(OC)OC)cc2)cc(OC)c1OC,–,"inconclusive [inhibitor, single point]"
CC(C)(C)CC(=O)Nc1nnc(SCC(=O)N2CCCCC2)s1,–,"inconclusive [inhibitor, partial curve]"
O=C1c2ccccc2-c2onc3ccc(N4CCCC4)c1c23,inactive: 0.627%,–
COCC(=O)N(Cc1cc2ccc(C)cc2[nH]c1=O)c1ccccc1C,–,"inconclusive [inhibitor, single point]"
CC(CCN1CCOCC1)c1ccccc1 (stereo unspecified),–,"inconclusive [inhibitor, full curve, poor fit]"
O=S(=O)(/N=C/c1ccccc1O)c1cccs1,–,"inconclusive [inhibitor, full curve]"
CNC(=O)c1ccccc1NC(=O)C1CC(=O)N(C(C)C)C1 (stereo unspecified),–,"inconclusive [inhibitor, full curve, poor fit]"
NS(=O)(=O)c1ccc(CNC(=O)c2ccccc2SCC(=O)N2CCCC2)cc1,–,"inconclusive [inhibitor, full curve, poor fit]"
COc1ccc(CCNC(=O)c2ccc3nc(-c4ccco4)c(-c4ccco4)nc3c2)cc1OC,inactive: 5.14%,–
O=C(O)c1ccc(Oc2ccc(S(=O)(=O)c3ccc(C(=O)O)c(C(=O)O)c3)cc2)cc1,–,"inconclusive [inhibitor, partial curve]"
COc1ccc(CN2CCc3c([nH]c4ccccc34)C2)c(OC)c1C,–,"inconclusive [inhibitor, full curve, poor fit]"
CC(NCCC(c1ccccc1)c1ccccc1)c1ccccc1 (stereo unspecified),–,"inconclusive [inhibitor, partial curve]"
COc1cccc(NC(=O)CSc2nnc(Cc3cccn3C)n2-c2ccc(F)cc2)c1,–,"inconclusive [inhibitor, full curve, poor fit]"
O=C1COc2ccc(C(=O)COC(=O)Cc3c(F)cccc3Cl)cc2N1,–,"inconclusive [inhibitor, partial curve, poor fit]"
